# Measured values published in PMC9911399, “Two distinct binding modes provide the RNA-binding protein RbFox with extraordinary sequence specificity”.
# Where a chain is given by its changes, count along the chain named. The list shows a part of the results.
# T1: RBFOX1 RRM RbFoxmut (Fox-RRM*) (Homo sapiens, UniProt Q9NWB1 109-208, R118D;E147R;N151S;E152T)
# T1 sequence: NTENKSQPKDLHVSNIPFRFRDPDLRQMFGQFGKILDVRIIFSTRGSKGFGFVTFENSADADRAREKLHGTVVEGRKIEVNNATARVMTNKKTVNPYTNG
# B1: UGUUAUU (DNA:RNA)
# RNA: GGGAGACCGGAAUUCAGAUUGUCCUGUUAUUUUAAAUCCCGUCGUAGCCACCA
# DNA 1: CAATCTGAATTCCGGTCTCCC
# DNA 2: TGGTGGCTACGACGGGATT
# B2: CACCACA (DNA:RNA)
# RNA: B1 RNA with U25C, G26A, U27C, U28C, U30C, U31A
# DNA 1: CAATCTGAATTCCGGTCTCCC
# DNA 2: TGGTGGCTACGACGGGATT
# B3: UGCACGU (DNA:RNA)
# RNA: B1 RNA with U27C, U28A, A29C, U30G
# DNA 1: CAATCTGAATTCCGGTCTCCC
# DNA 2: TGGTGGCTACGACGGGATT
# B4: GAGCGAC (DNA:RNA)
# RNA: GGGAGACCGGAAUUCAGAUUGUCCGAGCGACUUAAAUCCCGUCGUAGCCACCA
# DNA 1: CAATCTGAATTCCGGTCTCCC
# DNA 2: TGGTGGCTACGACGGGATT
# B5: CGACGCG (DNA:RNA)
# RNA: B4 RNA with G25C, A26G, G27A, A30C, C31G
# DNA 1: CAATCTGAATTCCGGTCTCCC
# DNA 2: TGGTGGCTACGACGGGATT
# B6: CAGCCUA (DNA:RNA)
# RNA: B4 RNA with G25C, G29C, A30U, C31A
# DNA 1: CAATCTGAATTCCGGTCTCCC
# DNA 2: TGGTGGCTACGACGGGATT
# B7: CAAGUCU (DNA:RNA)
# RNA: B4 RNA with G25C, G27A, C28G, G29U, A30C, C31U
# DNA 1: CAATCTGAATTCCGGTCTCCC
# DNA 2: TGGTGGCTACGACGGGATT
# B8: GCGGGAC (DNA:RNA)
# RNA: B4 RNA with A26C, C28G
# DNA 1: CAATCTGAATTCCGGTCTCCC
# DNA 2: TGGTGGCTACGACGGGATT
# B9: CACGAGA (DNA:RNA)
# RNA: B4 RNA with G25C, G27C, C28G, G29A, A30G, C31A
# DNA 1: CAATCTGAATTCCGGTCTCCC
# DNA 2: TGGTGGCTACGACGGGATT
# B10: UUUGAAG (DNA:RNA)
# RNA: B1 RNA with G26U, U28G, U30A, U31G
# DNA 1: CAATCTGAATTCCGGTCTCCC
# DNA 2: TGGTGGCTACGACGGGATT
# B11: CAGUAUG (DNA:RNA)
# RNA: B1 RNA with U25C, G26A, U27G, U31G
# DNA 1: CAATCTGAATTCCGGTCTCCC
# DNA 2: TGGTGGCTACGACGGGATT
# B12: CUUGCCG (DNA:RNA)
# RNA: B1 RNA with U25C, G26U, U28G, A29C, U30C, U31G
# DNA 1: CAATCTGAATTCCGGTCTCCC
# DNA 2: TGGTGGCTACGACGGGATT
# B13: UCAAGUG (DNA:RNA)
# RNA: B1 RNA with G26C, U27A, U28A, A29G, U31G
# DNA 1: CAATCTGAATTCCGGTCTCCC
# DNA 2: TGGTGGCTACGACGGGATT
# B14: AUCCUGG (DNA:RNA)
# RNA: B4 RNA with G25A, A26U, G27C, G29U, A30G, C31G
# DNA 1: CAATCTGAATTCCGGTCTCCC
# DNA 2: TGGTGGCTACGACGGGATT
# B15: CGUGCGA (DNA:RNA)
# RNA: B1 RNA with U25C, U28G, A29C, U30G, U31A
# DNA 1: CAATCTGAATTCCGGTCTCCC
# DNA 2: TGGTGGCTACGACGGGATT
# B16: GACAUUA (DNA:RNA)
# RNA: B4 RNA with G27C, C28A, G29U, A30U, C31A
# DNA 1: CAATCTGAATTCCGGTCTCCC
# DNA 2: TGGTGGCTACGACGGGATT
# B17: UUGACCA (DNA:RNA)
# RNA: B4 RNA with G25U, A26U, C28A, G29C, A30C, C31A
# DNA 1: CAATCTGAATTCCGGTCTCCC
# DNA 2: TGGTGGCTACGACGGGATT
# B18: UUAUCCC (DNA:RNA)
# RNA: B1 RNA with G26U, U27A, A29C, U30C, U31C
# DNA 1: CAATCTGAATTCCGGTCTCCC
# DNA 2: TGGTGGCTACGACGGGATT
# B19: UCAUCCG (DNA:RNA)
# RNA: B1 RNA with G26C, U27A, A29C, U30C, U31G
# DNA 1: CAATCTGAATTCCGGTCTCCC
# DNA 2: TGGTGGCTACGACGGGATT
# B20: AUCUCGU (DNA:RNA)
# RNA: B1 RNA with U25A, G26U, U27C, A29C, U30G
# DNA 1: CAATCTGAATTCCGGTCTCCC
# DNA 2: TGGTGGCTACGACGGGATT
# Molecular target: T1, RBFOX1 RRM RbFoxmut (Fox-RRM*)
# Experiment: EMSA; HiTS-Eq, 1 nM pool, 10 min; buffer printed only for the single-RNA assays: 10 mM Tris pH 7.5, 150 mM NaCl, 3.4 mM EDTA, 0.001% NP-40, 30 C
# Conditions: tags: His6 N-terminal (pET28a); label: 5' 32P
# Outline: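 Relative association constants, normalised to the cognate motif, were derived by comparing read counts of each RNA species with those of the control reaction. The RNA sequenced was the free fraction, separated by 8% native PAGE after a 10 min equilibration in 50 µL of 1 nM 5′-radiolabelled RNA (7 randomized nucleotides) with increasing concentrations of purified wild-type or mutant RbFox RRM.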
row,Binder,binding signal
1,B1,0.114 KA relative to UGCAUGU
2,B2,0.118 KA relative to UGCAUGU
3,B3,0.362 KA relative to UGCAUGU
4,B4,0.0683 KA relative to UGCAUGU
5,B5,0.129 KA relative to UGCAUGU
6,B6,0.0764 KA relative to UGCAUGU
7,B7,0.0656 KA relative to UGCAUGU
8,B8,0.0962 KA relative to UGCAUGU
9,B9,0.0868 KA relative to UGCAUGU
10,B10,0.1 KA relative to UGCAUGU
11,B11,0.566 KA relative to UGCAUGU
12,B12,0.098 KA relative to UGCAUGU
13,B13,0.117 KA relative to UGCAUGU
14,B14,0.106 KA relative to UGCAUGU
15,B15,0.0992 KA relative to UGCAUGU
16,B16,0.103 KA relative to UGCAUGU
17,B17,0.0867 KA relative to UGCAUGU
18,B18,0.0744 KA relative to UGCAUGU
19,B19,0.0962 KA relative to UGCAUGU
20,B20,0.136 KA relative to UGCAUGU
